In paper PMC4336329 (PLoS ONE, 2015):
Screen size: about 310,000 compounds; about 2,200 (0.71%) showed an effect of 50% or more. Effects have a minus sign here. Some of the results follow.

molecular target: human ether-à-go-go-related gene (hERG) potassium channel (human, UniProt Q12809); test: primary screen, population patch clamp on CHO cells stably expressing hERG
Sequence (Q12809 whole entry, looked up): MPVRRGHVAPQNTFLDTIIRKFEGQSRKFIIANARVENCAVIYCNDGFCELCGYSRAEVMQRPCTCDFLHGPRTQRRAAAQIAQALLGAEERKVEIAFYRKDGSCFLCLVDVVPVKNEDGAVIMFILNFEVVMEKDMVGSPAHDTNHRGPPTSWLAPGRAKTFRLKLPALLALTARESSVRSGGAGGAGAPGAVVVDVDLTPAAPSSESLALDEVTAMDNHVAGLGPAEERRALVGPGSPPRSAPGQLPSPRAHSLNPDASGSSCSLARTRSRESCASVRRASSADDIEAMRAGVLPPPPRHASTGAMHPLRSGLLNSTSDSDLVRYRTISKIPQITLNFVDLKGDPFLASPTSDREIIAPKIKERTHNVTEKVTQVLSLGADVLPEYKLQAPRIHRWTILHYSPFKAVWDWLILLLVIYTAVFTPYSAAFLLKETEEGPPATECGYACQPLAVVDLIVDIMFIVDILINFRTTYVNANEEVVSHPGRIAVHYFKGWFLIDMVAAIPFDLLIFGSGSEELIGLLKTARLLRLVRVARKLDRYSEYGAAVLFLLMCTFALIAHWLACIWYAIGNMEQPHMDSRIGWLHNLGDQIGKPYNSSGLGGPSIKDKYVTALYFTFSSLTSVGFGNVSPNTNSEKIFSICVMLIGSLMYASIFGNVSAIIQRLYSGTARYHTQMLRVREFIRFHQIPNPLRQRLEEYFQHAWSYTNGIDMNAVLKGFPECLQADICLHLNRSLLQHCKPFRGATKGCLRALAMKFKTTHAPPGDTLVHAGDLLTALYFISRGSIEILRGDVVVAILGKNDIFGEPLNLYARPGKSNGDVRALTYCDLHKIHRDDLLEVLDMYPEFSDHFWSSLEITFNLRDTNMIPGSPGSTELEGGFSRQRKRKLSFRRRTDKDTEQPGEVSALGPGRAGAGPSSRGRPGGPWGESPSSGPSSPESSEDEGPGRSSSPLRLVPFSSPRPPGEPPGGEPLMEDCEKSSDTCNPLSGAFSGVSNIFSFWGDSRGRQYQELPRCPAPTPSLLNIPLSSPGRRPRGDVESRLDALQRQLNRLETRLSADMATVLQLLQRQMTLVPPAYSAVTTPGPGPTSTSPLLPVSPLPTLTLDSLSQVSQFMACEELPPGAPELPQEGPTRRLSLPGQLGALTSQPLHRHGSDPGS

Row | Structure (SMILES) | hERG current change (%, negative = inhibition) at 1uM [%]
1 | CNc1ccccc1C(=O)OCC(=O)N1CCN(c2ccc(OC)cc2)CC1 | 13.2
2 | CC1CCCCC1NC(=O)CCS(=O)(=O)c1ccc2c(c1)NC(=O)CO2 (stereo not drawn) | 15.9
3 | COc1ccc(OC)c(CN2CCN(C(=O)[C@@H](NC(=O)c3cccc(C)c3)C(C)C)CC2)c1 | 7.46
4 | CC(C)c1cccc(OCC(=O)Nc2ccc(S(=O)(=O)Nc3ccccn3)cc2)c1 | 24.2
5 | Cc1nc(CNS(=O)(=O)c2cccs2)cs1 | 14.5
6 | CC(C)c1nc(CNC(=O)CC2C(=O)NCCN2Cc2ccc(F)cc2Cl)cs1 (stereo not drawn) | 6.26
7 | COc1ccc(/C=N/NC(=O)c2ccc3nc[nH]c3c2)cc1OC | 16.7
8 | Nc1cccc(-n2nnnc2CN2CCOCC2)c1 | 7.84
9 | CC(NS(=O)(=O)c1ccc(Br)cc1)C(c1cccs1)N1CCOCC1 (stereo not drawn) | 2.31
10 | CCC(=O)N(Cc1cc2cc(OC)ccc2[nH]c1=O)c1ccc(C)cc1C | -6.17
11 | COc1ccc(CN2CCN(Cc3cc4ccccc4o3)CC2CCO)cc1C (stereo not drawn) | -1.29
12 | CC(C)c1ccc(NC(=O)CSc2nc(=O)n(CCN3CCOCC3)c3c2CCC3)cc1 | -8.26
13 | Cc1cc(=O)[nH]c(SCc2nc3ccccc3s2)n1 | 6.67
14 | COc1ccc(NC(=S)NCCc2c[nH]c3ccccc23)cc1 | 6.94
15 | O=C(CN1C(=O)c2ccccc2C1=O)Nc1ccccc1C(F)(F)F | 7.93
16 | CN(C)S(=O)(=O)N1C(=O)c2ccccc2C1=O | 20.8
17 | CC1(CCc2ccccc2)NC(=O)N(Cc2cc([N+](=O)[O-])cc3c2OCOC3)C1=O (stereo not drawn) | 8.5
18 | O=C(Cc1ccccc1)n1nc(-c2ccco2)nc1SCc1ccccc1 | 2.06
19 | COC(=O)CSc1nnc(-c2ccc(S(=O)(=O)N3CCC(C)CC3)cc2)o1 | 11.5
20 | COc1ccc(N2C(=O)NC(=O)/C(=C\c3cn(CC(=O)N4CCOCC4)c4ccccc34)C2=O)c(OC)c1 | 9.03
21 | CC(NCc1ccccc1Cl)C(=O)Nc1ccc(S(=O)(=O)N2CCCC2)cc1 (stereo not drawn) | 15.5
22 | COc1ccc(N2Cc3cccc(C(=O)O)c3C2=O)cc1 | 0.823

Row | Structure (SMILES) | hERG current change (%, negative = inhibition) at 1uM [%]
23 | O=C(/C=C/c1ccccc1)Nc1cc(NC(=O)/C=C/c2ccccc2)cc(C(=O)O)c1 | 13.8
24 | COCc1cc(C)nc(SCc2ccc(Cl)cc2)c1C#N | -4.21
25 | Cc1cccc(-n2ncc3c(=O)[nH]c(SCC(=O)NCCC4=CCCCC4)nc32)c1 | 17.5
26 | COc1ccc(-n2cc(CNCc3cccnc3)c(-c3cccc(F)c3)n2)cc1 | 9.07
27 | C[C@@H](OC(=O)N1CCCCC1)[C@H]1O[C@]2(C)CCCC[C@H]1O2 | 8.67
28 | c1cncc(-c2nnc(-c3cccnc3)nn2)c1 | 10.2
29 | CCCCNC(=O)Cc1coc2ccc3ccccc3c12 | -3.45
30 | O=C(NCc1ccc2c(c1)OCO2)c1c(O)c2cccc3c2n(c1=O)CCC3 | 4.97
31 | CCOC(=O)C1=C(CN2CCSCC2)NC(=O)NC1c1cccc([N+](=O)[O-])c1 (stereo not drawn) | 2.95
32 | COc1ccc(C(=O)NC2=Nc3ccccc3N=C(C)C2c2ccccc2)cc1 (stereo not drawn) | 3.47
33 | COc1ccccc1Nc1nccc(N(C)C)c1C#N | 11.1
34 | O=c1[nH]c(-[n+]2ccc3ccccc3c2)c(/C=N/N=C(\[O-])c2ccccc2)s1 | 15
35 | OC1/C(=C/c2ccccc2C(F)(F)F)N2CCC1CC2 (stereo not drawn) | 7.33
36 | Cc1c(N2C(=O)c3ccccc3C2=O)c(=O)n(-c2ccccc2)n1C | -12.3
37 | O=C(NC(CO)(CO)CO)c1coc(=O)c(Br)c1 | 10.7
38 | CCOc1cccc(/C=N/Nc2nc(N3CCCC3)nc(N3CCCC3)n2)c1O | 13.5
39 | COC(=O)c1ccc(SCC(=O)NC2CCCC2)c([N+](=O)[O-])c1 | 1.34
40 | COCCCn1c(=O)/c(=C\c2cccc(OC)c2OC)s/c1=C(/C#N)C(=O)Nc1ccc(C(=O)O)cc1 | 9.59
41 | COc1ccc(F)cc1C(=O)C1CCCN(Cc2c[nH]c3ccccc23)C1 (stereo not drawn) | -18.6
42 | Cc1cc(NC(=O)COC(=O)c2c(C)nn(Cc3ccccc3)c2C)no1 | -0.494
43 | Cc1ccc(S(=O)(=O)N2CCC(=O)N(C(COCc3cccc(C(F)(F)F)c3)Cc3ccccc3)CC2)cc1 (stereo not drawn) | 8.15
44 | CCCCn1nc2cc(C(=O)NCC34CC5CC(CC(C5)C3)C4)ccc2c1OC | 9.66

Row | Structure (SMILES) | hERG current change (%, negative = inhibition) at 1uM [%]
45 | Cn1c(-c2ccccc2)nc2cnccc21 | 6.29
46 | Cc1cc(OC(=O)c2ccc(F)cc2)c([N+](=O)[O-])c(=O)[nH]1 | 17.1
47 | O=C(N/N=C/c1ccco1)c1ccccn1 | 8.4
48 | CC1CCN(C2(O)C(=O)Nc3ccc(Br)cc32)CC1 (stereo not drawn) | 6
49 | CCOC(=O)CN(C(=O)CSc1nnc(-c2cccc(OC)c2)o1)c1ccc(F)cc1 | -11.6
50 | O=C(O)CC(CC(=O)Nc1ccc(Oc2ccccc2)cc1)c1ccccc1 (stereo not drawn) | 12.2
51 | O=C(O)c1ccccc1C(=O)NNc1ccc(F)cc1F | 1.29
52 | O=C(NCc1ccc(F)cc1)c1cccc(S(=O)(=O)N2CCCC2)c1 | -6.47
53 | COc1cccc(C(=O)/C=C/Nc2ccc(S(=O)(=O)Nc3cnc4ccccc4n3)cc2)c1 | -6.65
54 | COc1ccc(C2=NN(CN3C(=O)C(=O)c4ccccc43)C(c3ccc(OC)cc3)C2)cc1 (stereo not drawn) | 11.5
55 | CCOC(=O)c1ccccc1NC(=O)N[C@@H](C)C(=O)OC | 10.5
56 | COc1ccc(N2CCN(C(=O)c3cccc(N4C(=O)C5C6C=CC(C6)C5C4=O)c3)CC2)cc1 (stereo not drawn) | 8.23
57 | O=C(Nc1ccc2c(c1)OCO2)C1CC(=O)N(c2ccc(F)cc2)C1 (stereo not drawn) | 10
58 | O=C1CC2C(CC(OC(=O)c3ccc(-c4ccccc4)cc3)C2CO)O1 (stereo not drawn) | 9.75
59 | Cc1cccc(C(=O)NCc2ccco2)c1 | 14.9
60 | C#CCOCCOCCOCCNc1nc(N2CCN(C(=O)Cn3cc(CCO)nn3)CC2)nc(N2CCN(C(=O)[C@H]([C@@H](C)O)n3cc(CCCC[NH3+])nn3)CC2)n1.[Cl-] | 11.6
61 | COc1ccc(S(=O)(=O)N2CCCCCC2)cc1C(=O)N(C)CC(=O)Nc1ccccc1Cl | 2.81
62 | COc1ccccc1N1CCN(C2CC(=O)N(c3ccc(Cl)cc3)C2=O)CC1 (stereo not drawn) | 17.5
63 | COc1ccc(NC(=O)CSc2nc(=O)n(CCN3CCOCC3)c3c2CCC3)cc1 | 12.5
64 | Cc1ccc(OCc2cc(C(=O)N3CCN(C4CCCC4)CC3)no2)cc1C | 5.22
65 | COc1cc(CNCc2ccccn2)ccc1OCc1ccccc1Cl.Cl | -1.56
66 | CCCCCCn1c(SCC(=O)c2ccccc2)nc2c1c(=O)[nH]c(=O)n2C | 0.521

Row | Structure (SMILES) | hERG current change (%, negative = inhibition) at 1uM [%]
67 | COc1ccc(OC)c(NC(=O)CSc2nnc(Cn3c(=O)sc4ccccc43)n2C)c1 | -14.6
68 | O=C(COC(=O)CCSc1ccccc1)NCc1ccccc1Cl | 8.01
69 | CCOc1cc2[nH]c(=S)n(CCOC)c(=O)c2cc1OCC | 11.1
70 | O=C(CN1C(=O)CSc2ccc(S(=O)(=O)N3CCCCC3)cc21)NCc1ccccc1 | -4.88
71 | CCOc1ccc(C(CC(=O)O)NC(=O)c2cccs2)cc1 (stereo not drawn) | 10.3
72 | COc1cccc(CC(=O)NCC2(N3CCCCC3)CCCCC2)c1 | 33.4
73 | NC(=O)C1CCN(C2CC(=O)N(c3cccc(F)c3)C2=O)CC1 (stereo not drawn) | -16
74 | COc1ccc(CCNC2CC(=O)N(C3CCCCC3)C2=O)cc1OC (stereo not drawn) | -1.5
75 | COc1ccc(-c2onc(C)c2-c2cnn(-c3ccccc3)c2)c(O)c1 | 5.81
76 | O=S(=O)(Nc1cccc(-c2cn3c(n2)SCC3)c1)c1ccccc1F | 8.8
77 | Nn1c(SC/C=C/c2ccccc2)nnc1-c1ccccn1 | 5.78
78 | Cc1cccc(N2CCN(C(=S)NC3CCCCC3)CC2)c1C | 11.9
79 | CC(C)N(Cc1nc(-c2ccccc2)no1)C(=O)C(Cl)(Cl)Cl | 12.1
80 | CCN(CC)CCn1c(N)nc2ccccc21.Cl | 10.1
81 | O=C(Nc1nnc(-c2cccc(F)c2)s1)Nc1ccccc1F | 11.5
82 | CCN1C(=O)c2cccc3c(Cl)ccc(c23)C1=O | 14.1
83 | CC(C)Cc1n[nH]c(=O)[nH]1 | -4.9
84 | COc1cccc(OCCOCCOc2ccc(C)cc2[N+](=O)[O-])c1 | 5.23
85 | CCOCCCNC(=O)C1CC(=O)N(CCc2ccccc2)C1 (stereo not drawn) | 13.2
86 | CCn1nc([N+](=O)[O-])c2c(-c3nc4ccccc4o3)c(N)n(CCCOC)c2c1=O | 9.96
87 | COc1ccc(C2/C(=C(\O)c3ccc4c(c3)OCCO4)C(=O)C(=O)N2Cc2cccnc2)cc1OC (stereo not drawn) | 15.3
